Assay in all cases: Primary Screen for Target Class Profiling of Small Molecule Inhibitors of Methyltransferases
The target of assay [1] is Glycine N-methyltransferase (Homo sapiens) (UniProt Q14749). To be noted: purified enzyme, MTase-Glo SAH luminescence; measured here: GNMT inhibition; at 40 µM; stronger effect = lower value. In outline: (§1)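 Each enzyme was assayed with SAM and its substrate. SAH formation detected by MTase-Glo luminescence; single-point 40 uM screen[…].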
Assay [2] addresses Guanidinoacetate N-methyltransferase (Homo sapiens) (UniProt Q14353). To be noted: purified enzyme, MTase-Glo SAH luminescence; measured here: GAMT inhibition; at 40 µM; stronger effect = lower value. In outline: as §1
Assay [3] deals with Histamine N-methyltransferase (Homo sapiens) (UniProt P50135). To be noted: purified enzyme, MTase-Glo SAH luminescence; measured here: HNMT inhibition; at 40 µM; stronger effect = lower value. In outline:
as §1

Assay [4] has as its target Nicotinamide N-methyltransferase (Homo sapiens) (UniProt P40261). Particulars: purified enzyme, MTase-Glo SAH luminescence; measured here: NNMT inhibition; at 40 µM; stronger effect = lower value. In outline:
as §1

For assay [5], the target named is Phenylethanolamine N-methyltransferase (Homo sapiens) (UniProt P11086). To be noted: purified enzyme, MTase-Glo SAH luminescence; measured here: PNMT inhibition; at 40 µM; stronger effect = lower value. In outline:
as §1

The list shows a part of the results. Further columns of the screen follow, without active or inactive calls.
% is set by controls: 0 for no effect and ±100 for the full control effect.

Take `CC1(C(=O)NC2CCCCC2)Cn2c(ccc2-c2ccccc2)C(=O)N1CCc1ccc(Cl)cc1` (stereo not drawn): the activity change, negative = inhibition in assay [1] is -0.463%; in assay [2], 2.86%; in assay [3], -0.065%; in assay [4] it was -2.34%; in assay [5], 0.664%.

As to `CN1CCN(CCCNC(=O)CCc2nnc3n(Cc4ccccc4Cl)c(=O)c4ccccc4n23)CC1`, the activity change, negative = inhibition in assay [1] was -4.07%; in assay [2], 3.75%; in assay [3], -11.5%; in assay [4], 10.3%; in assay [5], -0.929%.

As for `CCCn1c(=O)c2cc(F)ccc2n2c(SCC(=O)Nc3ccc(C)cc3Cl)nnc12`, the activity change, negative = inhibition in assay [1] was -5.53%; in assay [2], 0%; in assay [3], 5.85%; in assay [4] it was -0.288%; in assay [5], 1.76%.

As for `CCOC(=O)c1ccc(Nc2ncnc3ccc(Br)cc23)cc1`, the activity change, negative = inhibition in assay [1] was -5.32%; in assay [2], 0%; in assay [3], 1.48%; in assay [4] it was -0.947%; in assay [5], -4.19%.

Consider `CC(C)(C)NC(=O)[C@@H](c1cccnc1)N(C(=O)c1ccco1)c1ccc(C(C)(C)C)cc1`, for which the activity change, negative = inhibition in assay [1] is 1.49%; in assay [2], 9.8%; in assay [3], 2.64%; in assay [4], -14%; in assay [5], -3.47%.

Turning to `CC1(C)NC(C(=O)O)Cc2c1[nH]c1ccccc21` (stereo not drawn), the activity change, negative = inhibition in assay [1] is 5.38%; in assay [2], -3.28%; in assay [3], -2.76%; in assay [4], 3.4%; in assay [5], -5%.

Regarding `CCN(CC)CCOc1ccc(Nc2ncc3cc(-c4c(Cl)cccc4Cl)c(=O)n(C)c3n2)cc1`, the activity change, negative = inhibition in assay [1] was -18.8%; in assay [2] it was 8.52%; in assay [3], -72.3%; in assay [4] it was -12.6%; in assay [5] it was -3.47%.

As for `Cc1cccc(NC(=O)N2CCCC(Cc3noc(-c4cnccn4)n3)C2)c1` (stereo not drawn), the activity change, negative = inhibition in assay [1] was -0.922%; in assay [2], 0.313%; in assay [3], 0.945%; in assay [4], -2.3%; in assay [5], -1.73%.

On to `CN1CCN(Cc2nnc(C(=O)N3CCC[C@@H]3c3ccc(Br)cc3)n2Cc2ccccc2)CC1`, for which the activity change, negative = inhibition in assay [1] is -5.26%; in assay [2], -6.67%; in assay [3], -3.92%; in assay [4], -15.3%; in assay [5], 1.78%.

Consider `COCCN1Cc2nc(-c3ccsc3)ccc2OCC1=O`, for which the activity change, negative = inhibition in assay [1] is -4.24%; in assay [2], -2.42%; in assay [3], 0.838%; in assay [4], -8.74%; in assay [5], -2.46%.

As to `Cc1ccc(NC(=O)CCc2nnc3n(Cc4ccc(Cl)cc4)c(=O)c4ccccc4n23)cc1C`, the activity change, negative = inhibition in assay [1] is 7.03%; in assay [2] it was 4.52%; in assay [3], 7.16%; in assay [4] it was 6.1%; in assay [5], -0.409%.

On to `CCCn1c(=O)c2ccc(C(=O)NC(C)C)cc2n2c(=O)n(Cc3ccccc3)nc12`, for which the activity change, negative = inhibition in assay [1] was 5.06%; in assay [2], 2.23%; in assay [3], 10.1%; in assay [4], -2.23%; in assay [5], 5.77%.

Consider `COc1ccc(CCC(=O)Nc2ccc3c(c2)C(=O)N(C)C2=NCCN23)cc1`, for which the activity change, negative = inhibition is -5.41% in assay [1]; -4.24% in assay [2]; 4.8% in assay [3]; -4.89% in assay [4]; -7.26% in assay [5].

Turning to `CCOC(=O)c1cc2n(n1)CC(C)(C(=O)NCCCOC)N(c1ccc(Cl)cc1)C2=O` (stereo not drawn), the activity change, negative = inhibition in assay [1] came to 6.62%; in assay [2], 0%; in assay [3], 5.09%; in assay [4] it was 10.3%; in assay [5], 5.23%.

In the case of `O=C(O)CCC(=O)N1CCC2(CC1)C(=O)NCN2C(=O)Cc1c[nH]c2ccccc12`, the activity change, negative = inhibition in assay [1] was -3.06%; in assay [2], -2.19%; in assay [3] it was -2.68%; in assay [4], -7.83%; in assay [5], 9.67%.

As to `N#Cc1cccnc1N1CCN(c2nccc(N3CCCC(O)C3)n2)CC1` (stereo not drawn), the activity change, negative = inhibition in assay [1] is -5.5%; in assay [2], -1.5%; in assay [3], -5.51%; in assay [4], -3.29%; in assay [5], -1.18%.

In the case of `CC1CCCC(NC(=O)C2(C)Cn3c(cc4sccc43)C(=O)N2Cc2ccc(Cl)cc2)C1C` (stereo not drawn), the activity change, negative = inhibition in assay [1] is -8%; in assay [2], -0.758%; in assay [3], -4.18%; in assay [4] it was -1.67%; in assay [5], -4.11%.

For the compound `CCC(C)NC(=O)c1ccc2c(=O)n(C(C)C)c3nn(Cc4ccc(F)cc4)c(=O)n3c2c1` (stereo not drawn), the activity change, negative = inhibition in assay [1] is -5.26%; in assay [2], 2.5%; in assay [3], -3.89%; in assay [4] it was -3.52%; in assay [5] it was -2.27%.

Regarding `O=c1cc(-c2cccnc2)nc(-c2cccc(CN3CCNCC3)c2)[nH]1`, the activity change, negative = inhibition in assay [1] is -2.95%; in assay [2], 3.32%; in assay [3], -9.04%; in assay [4] it was -3.38%; in assay [5], 8.47%.

Turning to `CC(C)OC(=O)C(C)(C)Oc1ccc(C(=O)c2ccc(Cl)cc2)cc1`, the activity change, negative = inhibition in assay [1] was 10.2%; in assay [2], 14.8%; in assay [3], 14.8%; in assay [4], -4.63%; in assay [5], 1.18%.

On to `Cc1ccc(C(c2sc3nc(-c4ccco4)nn3c2O)N2CCCC2)cc1` (stereo not drawn), for which the activity change, negative = inhibition in assay [2] was 0.678%; in assay [4], -12.4%; in assay [5] it was 3.28%.

For `O=C(NC1CCCC1)NC1CCN(c2nc3ncccc3o2)C1` (stereo not drawn), the activity change, negative = inhibition was -7.14% in assay [1]; -6.75% in assay [2]; -7.12% in assay [3]; -12.1% in assay [4]; -8.66% in assay [5].

`COc1ccc(CN2C(=O)c3cc4sccc4n3CC2(C)C(=O)NC2CCCC(C)C2C)cc1` (stereo not drawn): the activity change, negative = inhibition in assay [1] was -3.01%; in assay [2], 1.9%; in assay [3], -4.17%; in assay [4], 0.581%; in assay [5] it was -10.6%.

In the case of `C[C@@H]1O[C@@H](O[C@H]2[C@@H](OC(=O)[C@]34CCC(C)(C)CC3C3=CCC5[C@@]6(C)C[C@H](O)[C@H](O[C@@H]7O[C@H](CO)[C@@H](O)[C@H](O)[C@H]7O[C@@H]7OC[C@@H](O)[C@H](O)[C@H]7O)[C@@](C)(C(=O)O)C6CC[C@@]5(C)[C@]3(C)CC4)OC[C@H](O)[C@@H]2O)[C@H](O)[C@H](O)[C@H]1O[C@@H]1OC[C@@H](O)[C@H](O)[C@H]1O` (stereo partly drawn), the activity change, negative = inhibition is 0.944% in assay [1]; -1.16% in assay [2]; 10.1% in assay [3]; -13.2% in assay [4]; 7.07% in assay [5].

For `COc1ccccc1CNC(=O)C1(C)Cn2nc(-c3ccccc3)cc2C(=O)N1c1cccc(SC)c1` (stereo not drawn), the activity change, negative = inhibition in assay [1] was 2.03%; in assay [2], 0.195%; in assay [3], 5.72%; in assay [4], 3.25%; in assay [5], -3.02%.

For `COC(=O)c1ncn2c1C(=O)N(Cc1ccc(OC)cc1OC)C(C)(C(=O)NC1CCCC1)C2` (stereo not drawn), the activity change, negative = inhibition in assay [1] was 3.12%; in assay [2], 1.77%; in assay [3] it was 7.62%; in assay [4] it was 3.27%; in assay [5], 1.44%.

For `CC(C)CCNC(=O)C1c2c(n(C)c3ccccc23)SCC(=O)N1c1ccc2c(c1)OCO2` (stereo not drawn), the activity change, negative = inhibition in assay [1] is -2.33%; in assay [2], -1.43%; in assay [3], 1.79%; in assay [4], -6.63%; in assay [5] it was -6.31%.

Take `COc1cc2c(cc1OC)-c1[nH]nc(Nc3cccc(F)c3)c1C2`: the activity change, negative = inhibition was -11.6% in assay [1]; 7.62% in assay [2]; -2.09% in assay [3]; -24.1% in assay [4]; -3.46% in assay [5].

Turning to `O=C(Nc1cccc(-c2ccc(N3CCOCC3)nn2)c1)Nc1ccc(F)cc1F`, the activity change, negative = inhibition is -13.7% in assay [1]; -16.4% in assay [2]; -14.2% in assay [3]; -26.4% in assay [4]; -18.8% in assay [5].

Turning to `OC(CNCCc1c[nH]c2ccccc12)Cn1c2ccccc2c2ccccc21` (stereo not drawn), the activity change, negative = inhibition in assay [1] is -2.91%; in assay [2] it was 6.92%; in assay [3], -15%; in assay [4] it was -20.8%; in assay [5] it was -5.3%.

Source of the values: PubChem BioAssay AID1745853 (National Center for Advancing Translational Sciences (NCATS), 2022).
